# Source: PubChem BioAssay AID902 (National Center for Advancing Translational Sciences (NCATS), 2007)
# In all, about 130,000 compounds went through this assay and about 1,900 (1.5%) were called active. This list was built around the results that the source calls inconclusive (neither active nor inactive); the mix of calls is not that of the screen. Calls follow the shape of the dose curve; as a rule, active = well fitted cell-killing curve with a large enough effect; inconclusive = small, poorly fitted or top-dose-only effect; inactive = no such curve, though single readings can be large or run the other way. Where the call is inconclusive, the potency comes from a doubtful curve fit.
# Assay: qHTS Screen for Compounds that Selectively Target Cancer Cells with p53 Mutations: Cytotoxicity of p53ts Cells at the Nonpermissive Temperature; also: nearly all actives have a fitted effect of over 55% in size
# Details: H1299-p53A138V viability at 39C, ATP luminescence, 24 h; activity change, negative = cell killing: at 46.1 µM (top of the series)
# % is scaled to controls: 0 for no effect and ±100 for the full control effect; potency is read from the fitted curve at half-maximal effect; tags tell the direction and shape of the fitted curve.
Compound,"activity change, negative = cell killing",Potency
c1ccc2c(c1)nnn2Cc1nnc2sc(-c3ccncc3)nn12,inactive: 7.94%,
CC(C)CCNC(=O)c1ccc2c(c1)N(Cc1cccc(Cl)c1)C(=O)c1ccccc1S2,,"inconclusive: 1 µM [cytotoxic, partial curve, poor fit]"
Nc1nc(N)c2nc(-c3ccccc3)c(N)nc2n1,,inactive
COc1cccc(NC(=O)c2oc3ccccc3c2NC(=O)c2ccc3c(c2)OCO3)c1,,active: 10 µM
COc1cccc(-c2noc(-c3cccnc3)n2)c1,inactive: -28.1%,
COCCCNc1nc2cc(OC)c(OC)cc2c2nc(-c3ccccc3)nn12,,"inconclusive: 31.6 µM [cytotoxic, single point]"
CCCCCCn1c(N(CC)CC)nc2c1c(=O)[nH]c(=O)n2C,inactive: -1.44%,
O=C1c2ccccc2S(=O)(=O)N1Cc1nc2ccccc2s1,,"inconclusive: 15.8 µM [cytotoxic, partial curve]"
CN(C(=O)c1ccccc1C(=O)O)C1CC(C)(C)NC(C)(C)C1,inactive: 0.886%,
COc1cccc(Cn2c(=O)c(-c3cc(F)cc(F)c3)nc3cnc(N4CCNCC4)nc32)c1,,active: 15.8 µM
c1ccc(-c2nnc(CN3CCN(c4ccccn4)CC3)o2)cc1,inactive: -6.73%,
COc1ccc(C(=O)Nc2cc(C(C)C)c(O)c(S(=O)(=O)c3ccc(Cl)cc3)c2C)cc1,,"inconclusive: 0.0316 µM [cytotoxic, full curve, poor fit]"
Cc1ccc(OCC(=O)Nc2nnn(C)n2)c(C)c1,,"inconclusive: 12.6 µM [cytotoxic, single point]"
Cc1cccc(-n2nnnc2SCC(=O)c2cc(C)n(Cc3ccco3)c2C)c1,,"inconclusive: 31.6 µM [cytotoxic, single point]"
c1ccc(Nc2nc(-c3ccc4c(c3)OCO4)nc3ccccc23)cc1,,"inconclusive: 25.1 µM [cytotoxic, single point]"
O=C(O)Cc1sc(Nc2ccccc2Cl)nc1-c1ccccc1,,"inconclusive: 12.6 µM [cytotoxic, single point]"
COc1ccccc1CNc1nc(-c2ccc(N(C)C)cc2)nc2ccccc12,,active: 20 µM
COc1cccc(O)c1O,,active: 6.31 µM
Cc1c(C)c(C)c(CC2(C)CSC2)c(CC2(C)CSC2)c1C,inactive: 1.37% [at 9.22 µM],
Cc1cc(N2CCC(C)CC2)n2ncc(-c3ccccc3)c2n1,,"inconclusive: 12.6 µM [cytotoxic, single point]"
O=C(C1CC1)N1CCN(c2nc3ccc(F)cc3s2)CC1,,"inconclusive: 12.6 µM [cytotoxic, partial curve]"
COc1cccc(Cn2c(=O)n(-c3ccccc3C)c(=O)c3c2c2cc(C)ccc2n3C)c1,,"inconclusive: 2.51 µM [cytotoxic, full curve]"
COc1cccc(NC(=O)C2CCN(C(=O)N3CC(C)Oc4ccccc43)CC2)c1 (stereo not drawn),inactive: -22.6%,
Cc1ccc(CNC(=O)CN2C(=O)C3CCCCN3c3ccc(C(=O)N4CCCC4)cc32)cc1 (stereo not drawn),,"inconclusive: 0.0079 µM [cytotoxic, full curve, poor fit]"
COc1ccc(-c2cn3ccccc3n2)cc1OC,,active: 5.01 µM

Compound,"activity change, negative = cell killing",Potency
COc1cccc(-n2c(SCc3ccccc3C)nc3c([nH]c4ccccc43)c2=O)c1,,"inconclusive: 7.94 µM [cytotoxic, full curve, poor fit]"
Cc1cccc(Cc2c(C)nc3nc(SCc4ccccc4C)nn3c2C)c1,inactive: 4.14%,
CCc1ccc(NC(=O)Cn2c(=O)n(CCC(=O)NCc3ccc4c(c3)OCO4)c(=O)c3ccccc32)cc1,,"inconclusive: 5.01 µM [cytotoxic, full curve, poor fit]"
CCC1CN(C(=O)Nc2cc(C)cc(C)c2)c2ccccc2O1 (stereo not drawn),,"inconclusive: 25.1 µM [cytotoxic, single point]"
Cc1c(-c2nsc(NC(=O)c3cccs3)n2)nnn1-c1ccc(Br)cc1,,"inconclusive: 15.8 µM [cytotoxic, single point]"
O=C(COc1ccccc1-c1nc(-c2ccccc2)no1)Nc1ccccc1[N+](=O)[O-],inactive: -14.8%,
CCOC(=O)C1=C(CS(=O)(=O)c2ccc(F)cc2)NC(=O)NC1c1ccc(OCC)c(OC)c1 (stereo not drawn),inactive: 3.93%,
Cc1cc(C)cc(OCC(=O)NCC2(N(C)C)CCCCC2)c1,inactive: -6.35%,
CC(=O)Nc1ccc(C2Nc3c(C)cc(C)cc3-c3cc(C)nn32)cc1 (stereo not drawn),inactive: -3.53%,
CCn1cc2nc(SCc3ccccc3)n(Cc3ccc(C)cc3)c(=O)c2n1,inactive: 54.4%,
COc1cccc(NC(=O)Nc2cc(-c3cn4cccnc4n3)ccc2OC)c1,,active: 10 µM
CCOc1ccc(C(CC(=O)Nc2ccc(C(=O)OC)cc2)N2Cc3ccccc3C2=O)cc1OC (stereo not drawn),,"inconclusive: 0.0398 µM [cytotoxic, full curve]"
Cn1c(=O)c2c(nc(NCc3ccccc3)n2Cc2ccc(Cl)c(Cl)c2)n(C)c1=O,inactive: -21.4%,
CCc1ccc(C(=O)c2cn(Cc3ccccc3)c3cc(OC)c(OC)cc3c2=O)cc1,,"inconclusive: 7.94 µM [cytotoxic, partial curve]"
CC(C)CN1CCCC2(CCN(C(=O)c3cccn3C)CC2)C1,inactive: 12.8%,
O=C(/C=C/Nc1ccccc1F)c1cccs1,,"inconclusive: 12.6 µM [cytotoxic, single point]"
COc1ccc(NC(=O)Nc2ccc(N(C)C)cc2)cc1,,"inconclusive: 10 µM [cytotoxic, partial curve]"
O=C(c1cc(O)c(O)c([N+](=O)[O-])c1)c1ccccc1F,,"inconclusive: 31.6 µM [cytotoxic, single point]"
Cc1ccc(CNC(=O)c2ccc(CSCc3c(F)cccc3Cl)o2)cc1,,"inconclusive: 0.251 µM [cytotoxic, partial curve]"
COc1ccccc1NC(=O)N1CCOc2ccccc21,inactive: 7.27%,
COC(=O)c1cc2oc3ccccc3c2n1CC(=O)Nc1ccc(C)cc1Cl,,"inconclusive: 31.6 µM [cytotoxic, single point]"
CCn1c(C(=O)NCc2ccccc2)cc2sc(Cl)cc21,,"inconclusive: 25.1 µM [cytotoxic, single point]"
CC(C)CCn1c(=O)c2sccc2n2c(CCCC(=O)Nc3ccc(F)c(Cl)c3)nnc12,inactive: -5.97%,
CCOC(=O)c1sc(NC(=O)C2CC2)cc1C,,active: 12.6 µM
CCCCN1C(=O)/C(=C2\SC(N3CCCCC3)=NC2=O)c2ccccc21,,active: 15.8 µM

Compound,"activity change, negative = cell killing",Potency
CC(C)C(C(=O)Nc1ccccc1)N1C(=O)c2ccccc2C1=O (stereo not drawn),,"inconclusive: 20 µM [cytotoxic, partial curve]"
CCCCN(C)CC(O)Cn1cc(/C=C/C(=O)c2ccc(OCC)cc2)c2ccccc21 (stereo not drawn),,active: 5.01 µM
O=C(c1cnn2c(C(F)(F)F)cc(-c3ccco3)nc12)N1CCCCCC1,inactive: 3.13%,
O=C(CCn1c(=O)c2ccccc2n(Cc2ccc(Cl)cc2)c1=O)NCc1ccc2c(c1)OCO2,,"inconclusive: 31.6 µM [cytotoxic, single point]"
Cc1ccc(NC(=O)CN2C(=O)C(c3ccc(F)cc3)=NC2(C)C)c(C)c1,inactive: -11.2%,
CCOc1ccccc1NC(=O)C(=O)NCC(c1cccnc1)N1CCN(c2ccccc2)CC1 (stereo not drawn),,"inconclusive: 12.6 µM [cytotoxic, single point]"
CCCOc1ccc(CNC(=O)c2cc3oc4ccccc4c3n2C)cc1,,"inconclusive: 10 µM [cytotoxic, partial curve]"
CCNc1oc(-c2cccc3ccccc23)nc1C#N,inactive: -4.03%,
COc1ccc(CCNC(=O)c2cc(-c3ccc(C)c(C)c3)nc3ccccc23)cc1OC,,"inconclusive: 25.1 µM [cytotoxic, partial curve]"
Cc1nc2c(ccc3nc(NC(=O)c4ccc5c(c4)OCCO5)sc32)s1,,active: 3.16 µM
CC1=C(C(=O)OC2CCCCCC2)C(c2c(Cl)cccc2Cl)CC(=O)N1 (stereo not drawn),,"inconclusive: 31.6 µM [cytotoxic, single point]"
CCCN(C(=O)Cn1nc(Cc2cccnc2)c2ccccc2c1=O)c1ccc(C(C)C)cc1,,"inconclusive: 15.8 µM [cytotoxic, single point]"
Cc1ccc(-c2cn3c(n2)sc2cc(C(=O)NC4CCCCCC4)ccc23)c(C)c1,,"inconclusive: 0.02 µM [cytotoxic, full curve, poor fit]"
Cc1ccc2nc(N(Cc3cccnc3)C(=O)CCc3ccccc3)sc2c1,,"inconclusive: 1.58 µM [cytotoxic, partial curve, poor fit]"
O=S1(=O)N=C(Nc2nc3c(s2)CCCC3)c2ccccc21,,active: 3.98 µM
O=C(O)CCSc1nnc(-c2ccc(Cl)cc2Cl)o1,,"inconclusive: 10 µM [cytotoxic, partial curve]"
CCOC(=O)c1sc(NC(=O)CSc2nnc(Cc3ccccc3)o2)c(C#N)c1C,inactive: 2.32%,
CCOc1ccccc1N1CCN(S(=O)(=O)c2ccc3c4c(cccc24)C(=O)N3)CC1,inactive: 15.9%,
Cc1nn(CC(=O)NCCc2ccc(Cl)cc2Cl)c(C)c1[N+](=O)[O-],,"inconclusive: 224 µM [cytotoxic, partial curve, poor fit]"
O=C(c1cnc(N2CCCCC2)c2ccccc12)N1CCN(c2ccc(F)cc2)CC1,,"inconclusive: 12.6 µM [cytotoxic, partial curve]"
Cc1c(NC(=O)c2ccc(-c3ccc(F)cc3)o2)cccc1-c1nc2ncccc2o1,,"inconclusive: 15.8 µM [cytotoxic, partial curve]"
CN(C)c1ccc(-c2nc(NCCc3cnc[nH]3)c3ccccc3n2)cc1,,active: 5.01 µM
Cc1nc2c(-c3ccc(F)cc3)c(C)nn2c(C)c1CCC(=O)NCc1cccc(Cl)c1,,"inconclusive: 15.8 µM [cytotoxic, single point]"
